Substitutions are numbered along the chain they refer to; changes in the protein carry UniProt numbers. This is one part of the list.
T1: RBFOX1 RRM RbFoxmut (Fox-RRM*) (Homo sapiens, UniProt Q9NWB1 109-208, R118D;E147R;N151S;E152T)
T1 sequence: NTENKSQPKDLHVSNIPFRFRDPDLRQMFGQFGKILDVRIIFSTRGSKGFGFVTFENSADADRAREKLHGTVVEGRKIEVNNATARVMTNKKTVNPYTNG

B1: CAGCGCC (DNA:RNA)
RNA: GGGAGACCGGAAUUCAGAUUGUCCCAGCGCCUUAAAUCCCGUCGUAGCCACCA
DNA 1: CAATCTGAATTCCGGTCTCCC
DNA 2: TGGTGGCTACGACGGGATT
B2: GAAAGCA (DNA:RNA)
RNA: B1 RNA with C25G, G27A, C28A, C31A
DNA 1: CAATCTGAATTCCGGTCTCCC
DNA 2: TGGTGGCTACGACGGGATT
B3: GAAGACC (DNA:RNA)
RNA: B1 RNA with C25G, G27A, C28G, G29A
DNA 1: CAATCTGAATTCCGGTCTCCC
DNA 2: TGGTGGCTACGACGGGATT
B4: CUGCGAC (DNA:RNA)
RNA: B1 RNA with A26U, C30A
DNA 1: CAATCTGAATTCCGGTCTCCC
DNA 2: TGGTGGCTACGACGGGATT
B5: GGCUAUA (DNA:RNA)
RNA: GGGAGACCGGAAUUCAGAUUGUCCGGCUAUAUUAAAUCCCGUCGUAGCCACCA
DNA 1: CAATCTGAATTCCGGTCTCCC
DNA 2: TGGTGGCTACGACGGGATT
B6: AAUAAGC (DNA:RNA)
RNA: B1 RNA with C25A, G27U, C28A, G29A, C30G
DNA 1: CAATCTGAATTCCGGTCTCCC
DNA 2: TGGTGGCTACGACGGGATT
B7: GCCCGCU (DNA:RNA)
RNA: B1 RNA with C25G, A26C, G27C, C31U
DNA 1: CAATCTGAATTCCGGTCTCCC
DNA 2: TGGTGGCTACGACGGGATT
B8: UCUACGA (DNA:RNA)
RNA: B5 RNA with G25U, G26C, C27U, U28A, A29C, U30G
DNA 1: CAATCTGAATTCCGGTCTCCC
DNA 2: TGGTGGCTACGACGGGATT
B9: GGCAGCG (DNA:RNA)
RNA: B5 RNA with U28A, A29G, U30C, A31G
DNA 1: CAATCTGAATTCCGGTCTCCC
DNA 2: TGGTGGCTACGACGGGATT
B10: CUGGGUG (DNA:RNA)
RNA: B1 RNA with A26U, C28G, C30U, C31G
DNA 1: CAATCTGAATTCCGGTCTCCC
DNA 2: TGGTGGCTACGACGGGATT
B11: AGCUUAU (DNA:RNA)
RNA: B5 RNA with G25A, A29U, U30A, A31U
DNA 1: CAATCTGAATTCCGGTCTCCC
DNA 2: TGGTGGCTACGACGGGATT
B12: CUAACCC (DNA:RNA)
RNA: B1 RNA with A26U, G27A, C28A, G29C
DNA 1: CAATCTGAATTCCGGTCTCCC
DNA 2: TGGTGGCTACGACGGGATT
B13: AUCUCCC (DNA:RNA)
RNA: B1 RNA with C25A, A26U, G27C, C28U, G29C
DNA 1: CAATCTGAATTCCGGTCTCCC
DNA 2: TGGTGGCTACGACGGGATT
B14: ACCUCCU (DNA:RNA)
RNA: B5 RNA with G25A, G26C, A29C, U30C, A31U
DNA 1: CAATCTGAATTCCGGTCTCCC
DNA 2: TGGTGGCTACGACGGGATT
B15: ACUCUUU (DNA:RNA)
RNA: B1 RNA with C25A, A26C, G27U, G29U, C30U, C31U
DNA 1: CAATCTGAATTCCGGTCTCCC
DNA 2: TGGTGGCTACGACGGGATT
B16: GGCAUGU (DNA:RNA)
RNA: B5 RNA with U28A, A29U, U30G, A31U
DNA 1: CAATCTGAATTCCGGTCTCCC
DNA 2: TGGTGGCTACGACGGGATT
B17: CACUUGU (DNA:RNA)
RNA: B1 RNA with G27C, C28U, G29U, C30G, C31U
DNA 1: CAATCTGAATTCCGGTCTCCC
DNA 2: TGGTGGCTACGACGGGATT
B18: CGAGUAU (DNA:RNA)
RNA: B1 RNA with A26G, G27A, C28G, G29U, C30A, C31U
DNA 1: CAATCTGAATTCCGGTCTCCC
DNA 2: TGGTGGCTACGACGGGATT
B19: UACAUGA (DNA:RNA)
RNA: B5 RNA with G25U, G26A, U28A, A29U, U30G
DNA 1: CAATCTGAATTCCGGTCTCCC
DNA 2: TGGTGGCTACGACGGGATT
B20: UUUAAGA (DNA:RNA)
RNA: B5 RNA with G25U, G26U, C27U, U28A, U30G
DNA 1: CAATCTGAATTCCGGTCTCCC
DNA 2: TGGTGGCTACGACGGGATT
B21: GGUUCAA (DNA:RNA)
RNA: B5 RNA with C27U, A29C, U30A
DNA 1: CAATCTGAATTCCGGTCTCCC
DNA 2: TGGTGGCTACGACGGGATT
B22: UAAAGGU (DNA:RNA)
RNA: B1 RNA with C25U, G27A, C28A, C30G, C31U
DNA 1: CAATCTGAATTCCGGTCTCCC
DNA 2: TGGTGGCTACGACGGGATT
B23: GCUUUUA (DNA:RNA)
RNA: B5 RNA with G26C, C27U, A29U
DNA 1: CAATCTGAATTCCGGTCTCCC
DNA 2: TGGTGGCTACGACGGGATT
B24: UGAGCAG (DNA:RNA)
RNA: B5 RNA with G25U, C27A, U28G, A29C, U30A, A31G
DNA 1: CAATCTGAATTCCGGTCTCCC
DNA 2: TGGTGGCTACGACGGGATT
B25: AACAGAG (DNA:RNA)
RNA: B1 RNA with C25A, G27C, C28A, C30A, C31G
DNA 1: CAATCTGAATTCCGGTCTCCC
DNA 2: TGGTGGCTACGACGGGATT
B26: GUACCCA (DNA:RNA)
RNA: B1 RNA with C25G, A26U, G27A, G29C, C31A
DNA 1: CAATCTGAATTCCGGTCTCCC
DNA 2: TGGTGGCTACGACGGGATT
B27: CCAUAGU (DNA:RNA)
RNA: B5 RNA with G25C, G26C, C27A, U30G, A31U
DNA 1: CAATCTGAATTCCGGTCTCCC
DNA 2: TGGTGGCTACGACGGGATT
B28: UCGUGUA (DNA:RNA)
RNA: B5 RNA with G25U, G26C, C27G, A29G
DNA 1: CAATCTGAATTCCGGTCTCCC
DNA 2: TGGTGGCTACGACGGGATT
B29: CAAAUGU (DNA:RNA)
RNA: B1 RNA with G27A, C28A, G29U, C30G, C31U
DNA 1: CAATCTGAATTCCGGTCTCCC
DNA 2: TGGTGGCTACGACGGGATT
B30: CUUUACA (DNA:RNA)
RNA: B5 RNA with G25C, G26U, C27U, U30C
DNA 1: CAATCTGAATTCCGGTCTCCC
DNA 2: TGGTGGCTACGACGGGATT
B31: UAGUACC (DNA:RNA)
RNA: B1 RNA with C25U, C28U, G29A
DNA 1: CAATCTGAATTCCGGTCTCCC
DNA 2: TGGTGGCTACGACGGGATT

These binders were tested against T1, RBFOX1 RRM RbFoxmut (Fox-RRM*) (assay: EMSA; HiTS-Eq, 1 nM pool, 10 min; buffer printed only for the single-RNA assays: 10 mM Tris pH 7.5, 150 mM NaCl, 3.4 mM EDTA, 0.001% NP-40, 30 C). Conditions: tags: His6 N-terminal (pET28a); label: 5' 32P.
Procedure, shortened: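 Purified RbFox RRM (wild type or mutant) was equilibrated for 10 min in 50 µL with 1 nM of a 5′-radiolabelled pool of RNA with 7 randomized nucleotides, its flanks annealed to DNA oligonucleotides, across increasing protein concentrations. Free RNA was separated by 8% native PAGE, excised, reverse-transcribed, PCR-barcoded and sequenced on an Illumina HiSeq 2500. Relative association constants came from read-count changes of each variant against the control reaction, normalised to the cognate motif.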

| Binder | binding signal |
| --- | --- |
| B1 | 0.174 KA relative to UGCAUGU |
| B2 | 0.121 KA relative to UGCAUGU |
| B3 | 0.0506 KA relative to UGCAUGU |
| B4 | 0.0896 KA relative to UGCAUGU |
| B5 | 0.0958 KA relative to UGCAUGU |
| B6 | 0.0725 KA relative to UGCAUGU |
| B7 | 0.0828 KA relative to UGCAUGU |
| B8 | 0.074 KA relative to UGCAUGU |
| B9 | 0.0968 KA relative to UGCAUGU |
| B10 | 0.347 KA relative to UGCAUGU |
| B11 | 0.132 KA relative to UGCAUGU |
| B12 | 0.0661 KA relative to UGCAUGU |
| B13 | 0.0711 KA relative to UGCAUGU |
| B14 | 0.0601 KA relative to UGCAUGU |
| B15 | 0.0808 KA relative to UGCAUGU |
| B16 | 0.834 KA relative to UGCAUGU |

| Binder | binding signal |
| --- | --- |
| B17 | 0.138 KA relative to UGCAUGU |
| B18 | 0.143 KA relative to UGCAUGU |
| B19 | 0.0666 KA relative to UGCAUGU |
| B20 | 0.0732 KA relative to UGCAUGU |
| B21 | 0.0825 KA relative to UGCAUGU |
| B22 | 0.0926 KA relative to UGCAUGU |
| B23 | 0.0923 KA relative to UGCAUGU |
| B24 | 0.098 KA relative to UGCAUGU |
| B25 | 0.0721 KA relative to UGCAUGU |
| B26 | 0.0828 KA relative to UGCAUGU |
| B27 | 0.116 KA relative to UGCAUGU |
| B28 | 0.259 KA relative to UGCAUGU |
| B29 | 0.127 KA relative to UGCAUGU |
| B30 | 0.0935 KA relative to UGCAUGU |
| B31 | 0.0914 KA relative to UGCAUGU |
